{"source": "PubChem BioAssay AID652104", "about": "(National Center for Advancing Translational Sciences (NCATS), 2013)", "note": "About 7,200 (1.8%) of roughly 410,000 compounds were called active. This list was built around the results that the source calls inconclusive (neither active nor inactive); the mix of calls is not that of the screen. Calls follow the shape of the dose curve; as a rule, active = well fitted activation curve with a large enough effect; inconclusive = small, poorly fitted or top-dose-only effect, or another doubt; inactive = no such curve, though single readings can be large or run the other way. Potencies of inconclusive entries are left out as doubtful fits. Potency is read from the fitted curve at half-maximal effect; tags tell the direction and shape of the fitted curve.", "data": [{"assay": "qHTS of TDP-43 Inhibitors; also: nearly all actives have a fitted effect of over 50% in size; as to growth rescue (activation): % of control where 0% means no effect", "conditions": "TDP-43 expressing yeast growth rescue, BacTiter-Glo, 24 h; growth rescue (activation): at 46.1 µM (top of the series) unless noted", "outline": "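Yeast cells expressing TDP-43 under galactose induction are exposed to compounds for 24 hr at 30 deg C. BacTiter-Glo luminescence measures growth, so protective compounds score as activators.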", "values": [{"smiles": "CCN1CCN(c2csc3ccc(Br)cc3c2=O)CC1", "growth rescue (activation)": "inconclusive: -93.6% [activator]"}, {"smiles": "Cc1ccc(Sc2ncccc2O)cc1", "Potency": "inconclusive [activator, partial curve]"}, {"smiles": "COC(=O)CCC(=O)CN", "growth rescue (activation)": "inconclusive: 23.4% [activator]"}, {"smiles": "CC(C)(C)c1ccc(C(=O)NCC(=O)OCc2cc(=O)n3nc(C4CC4)sc3n2)cc1", "Potency": "inactive"}, {"smiles": "CC(C)C[C@H]1CN=C(Nc2ccccc2)N1CC1CCC(C)CC1", "note": "(stereo not given in full)", "Potency": "inactive"}, {"smiles": "COCCNc1nnc(SC(C)C(=O)Nc2ccc(-c3nc4ccc(C)cc4s3)cc2)s1", "note": "(stereo not given)", "Potency": "inactive"}, {"smiles": "c1ccc(CNc2ccc3ccccc3n2)nc1", "Potency": "inactive"}, {"smiles": "COc1ccc(C(=O)N2CCN(S(=O)(=O)c3ccc(Br)cc3)CC2)cc1", "Potency": "inconclusive [activator, single point]"}, {"smiles": "Cc1cccc(Cn2c(-c3ccccc3)nc3ccccc32)c1", "Potency": "active: 14.1 µM"}, {"smiles": "N#Cc1ccc(C(C(=O)NC2CCCCC2)n2c(=O)c(-c3cc4ccccc4[nH]3)nc3ccccc32)cc1", "note": "(stereo not given)", "Potency": "inconclusive [activator, partial curve, poor fit]"}, {"smiles": "O=C(CSc1nccn1-c1ccc(F)cc1)Nc1nc2ccccc2s1", "Potency": "inconclusive [activator, partial curve]"}, {"smiles": "O=C(NC1CCCCC1)C1c2ccccc2OCC(=O)N1CCc1ccccc1", "note": "(stereo not given)", "Potency": "inconclusive [activator, partial curve, poor fit]"}, {"smiles": "COc1ccc(-c2nc(CSCC(=O)N3CCc4ccccc43)c(C)o2)cc1OC", "Potency": "inconclusive [activator, partial curve]"}, {"smiles": "Oc1ccc(/C=N/N=C(c2ccccc2)c2ccccc2)c(O)c1O", "Potency": "inactive"}, {"smiles": "Cc1occc1C(=O)O/N=C(\\N)c1ccccc1", "Potency": "inconclusive [activator, single point]"}, {"smiles": "O=C(NC1CCCCC1)C(c1cccs1)N(C(=O)c1ccco1)c1ccc2c(c1)OCCO2", "note": "(stereo not given)", "Potency": "inactive"}, {"smiles": "CCOc1cc(/C=N\\Nc2nc(Nc3ccccc3)nc(N3CCOCC3)n2)ccc1OC(=O)c1ccco1", "Potency": "inconclusive [activator, single point]"}, {"smiles": "O=C(CSc1ccc(Br)cc1)NCC1CCCO1", "note": "(stereo not given)", "Potency": "inconclusive [activator, single point]"}, {"smiles": "COC(=O)c1ccc(COc2cccn3c(N(C)C(=O)CCC4CCCC4)c(C)nc23)cc1", "Potency": "inactive"}, {"smiles": "COc1ccc(-c2noc(CSc3ccccc3)n2)cc1OC", "Potency": "inconclusive [activator, partial curve]"}, {"smiles": "COC1=CC(=O)c2ccccc2C1=O", "Potency": "inconclusive [activator, partial curve]"}, {"smiles": "Cc1cccc(NC(=O)CN(C)S(=O)(=O)c2ccc3c(c2)n(C)c(=O)c(=O)n3C)c1C", "Potency": "inactive"}, {"smiles": "CCCCCC(=O)NNC(=S)NC(C)=O", "Potency": "inconclusive [activator, single point]"}, {"smiles": "CCOC(=O)CSc1nc2ccccc2c(=O)n1CCCCCC(=O)NCc1ccco1", "Potency": "inconclusive [activator, partial curve]"}, {"smiles": "O=C(Cn1c(SCc2ccc(F)cc2)nc2cccnc21)Nc1ccccc1F", "Potency": "inactive"}, {"smiles": "CCCN(CCC)C(=S)NC(=O)c1ccc(Cl)cc1Cl", "Potency": "inconclusive [activator, single point]"}, {"smiles": "O=C(CSc1ccc2c(c1)OCCO2)Nc1ccc(Br)cc1", "Potency": "inconclusive [activator, partial curve, poor fit]"}, {"smiles": "COc1ccc2c(c1)c1c(c(=O)n(Cc3ccccc3)c(=O)n1CC(=O)Nc1ccccc1OC)n2C", "Potency": "inconclusive [activator, full curve, poor fit]"}, {"smiles": "CCOc1ccc(Nc2nc(-c3cccc(Cl)c3)c3c(n2)-c2ccccc2OC3)cc1", "Potency": "inactive"}, {"smiles": "CCCC(=O)Nc1cccc(OCc2cc(=O)n3cccc(C)c3n2)c1", "Potency": "inconclusive [activator, single point]"}, {"smiles": "O=S(=O)(Cc1ccccc1)N1CCCc2ccccc21", "Potency": "inconclusive [activator, partial curve]"}, {"smiles": "CCOc1ccccc1NC(=O)CSc1nc2ccccc2c(=O)n1CC1CCCO1", "note": "(stereo not given)", "Potency": "inconclusive [activator, single point]"}, {"smiles": "Clc1ccc(CNc2cnccn2)cc1Cl", "Potency": "inconclusive [activator, single point]"}, {"smiles": "O=C(Nc1cccc2ccccc12)c1ccccc1Cl", "Potency": "inactive"}, {"smiles": "Cc1ccccc1-c1noc(CSc2nc3ccccc3[nH]2)n1", "Potency": "inconclusive [activator, partial curve]"}, {"smiles": "CCOc1ccccc1NC(=S)N1CCC(c2nc3ccccc3o2)CC1", "Potency": "inconclusive [activator, partial curve]"}, {"smiles": "COc1ccc(CCCc2nnc(SCC(=O)Nc3cccc(F)c3C)o2)cc1", "Potency": "inconclusive [activator, single point]"}, {"smiles": "CCOc1ccc(-n2c(=O)c3c4c(sc3n(CC(=O)NC(C)CC)c2=O)CCCCC4)cc1", "note": "(stereo not given)", "Potency": "inactive"}, {"smiles": "Cc1cccc(Nc2ncnc3onc(-c4cccc(Cl)c4)c23)c1C", "Potency": "active: 12.6 µM"}, {"smiles": "CCN1C(C(=O)c2ccccc2)=C(OC(=O)COc2ccc(C)cc2)c2ccccc2S1(=O)=O", "growth rescue (activation)": "inconclusive: -87.3% [activator]"}, {"smiles": "Cc1c(C(=O)Nc2cc(F)cc(F)c2)cnn1-c1ccccc1", "Potency": "inconclusive [activator, full curve, poor fit]"}, {"smiles": "CCOc1ccccc1OCC(=O)Nc1cc(C)on1", "Potency": "inconclusive [activator, partial curve]"}, {"smiles": "O=C(NC1=C(NC2CCS(=O)(=O)C2)C(=O)c2ccccc2C1=O)c1ccccc1", "note": "(stereo not given)", "growth rescue (activation)": "inconclusive: -91.7% [activator]"}, {"smiles": "O=C(c1ccc2c(Cl)c3c(nc2c1)CCCC3)N1CCN(c2ccc(Cl)cc2)CC1", "Potency": "inconclusive [activator, partial curve, poor fit]"}, {"smiles": "Cc1cccc(/C=N/NC(=O)Cn2nnnc2N)n1", "Potency": "inconclusive [activator, partial curve]"}, {"smiles": "O=C(Cc1ccccc1)NNC(=S)Nc1ccc(Cl)cc1", "Potency": "inconclusive [activator, partial curve]"}, {"smiles": "COc1ccccc1/C=C1\\S/C(=N/NC(=O)c2cccc(Br)c2)NC1=O", "Potency": "inconclusive [activator, partial curve]"}, {"smiles": "O=C(Cc1ccc(-c2ccccc2)cc1)NCCS(=O)(=O)N1CCN(c2ccc(F)cc2)CC1", "Potency": "inactive"}, {"smiles": "Cn1ncc2c(N3CCN(c4ccc(F)cc4)CC3)ncnc21", "Potency": "inconclusive [activator, partial curve]"}, {"smiles": "Cc1cc(O)cc(C)c1Cl", "Potency": "inactive"}, {"smiles": "CCCCCn1c(N2CCCC2)nc2c1c(=O)n(C)c(=O)n2C", "Potency": "inconclusive [activator, single point]"}, {"smiles": "O=C(CCc1nc(-c2ccccc2)no1)NC1CCCCCC1", "Potency": "inconclusive [activator, partial curve]"}, {"smiles": "Cc1ccc(S(=O)(=O)NCC(=O)Nc2cccnc2)cc1C", "Potency": "inconclusive [activator, single point]"}, {"smiles": "CCc1ccccc1NC(=O)C1CCN(S(=O)(=O)c2cn(C)cn2)CC1", "Potency": "inactive"}, {"smiles": "CCc1cc2c(cc3c(=O)n(CC(=O)NC(C)c4ccccc4)ncn32)s1", "note": "(stereo not given)", "Potency": "inactive"}, {"smiles": "O=C(Nc1ccc(N2CCCC2)c(Cl)c1)c1ccc(Br)o1", "Potency": "inactive"}, {"smiles": "O=C(CCn1nc(-c2ccc(Cl)cc2)ccc1=O)N1CCN(c2ccc(F)cc2)CC1", "Potency": "inconclusive [activator, partial curve, poor fit]"}, {"smiles": "Cc1noc(NS(=O)(=O)c2ccc(NC(=O)CC34CC5CC(CC(Br)(C5)C3)C4)cc2)c1C", "Potency": "inactive"}, {"smiles": "CCOC(=O)C1=C(C)N(C)C(=S)NC1c1ccccc1Cl", "note": "(stereo not given)", "Potency": "inconclusive [activator, single point]"}, {"smiles": "C[C@H](NC(=O)c1nc[nH]c1C(=O)N[C@@H](Cc1ccccc1)C(=O)OC(C)(C)C)c1ccccc1", "Potency": "inactive"}, {"smiles": "Cc1ccc(S(=O)(=O)N(CC2CO2)c2cc(Cl)ccc2Cl)cc1", "note": "(stereo not given)", "Potency": "inconclusive [activator, single point]"}, {"smiles": "COc1ccc(CNC(=O)c2c(O)c3cc(OC)c(OC)cc3[nH]c2=O)cc1OC", "Potency": "inactive"}, {"smiles": "CCOC(=O)C1CCCCN1C(=O)CCc1c(C)nc2cc(-c3ccccc3)nn2c1C", "note": "(stereo not given)", "Potency": "inconclusive [activator, partial curve]"}, {"smiles": "O=C(Nc1ccc(Oc2ccccc2)cc1)C1CCN(c2c3c(nc4ncnn24)CCC3)CC1", "Potency": "inconclusive [activator, full curve, poor fit]"}, {"smiles": "C[C@H](CO)N1C[C@H](C)[C@H](CN(C)S(=O)(=O)c2ccc3c(c2)OCCCO3)OCc2cnnn2CCCC1=O", "Potency": "inconclusive [activator, partial curve]"}, {"smiles": "CCOC(=O)[C@H]1CCC[C@@H](NS(=O)(=O)c2ccc(NC(C)=O)cc2)C1", "Potency": "inconclusive [activator, single point]"}, {"smiles": "O=C(c1cnn(C(=O)c2ccco2)c1)c1cc(Cl)cc(Cl)c1O", "growth rescue (activation)": "inconclusive: -91.9% [activator]"}, {"smiles": "COc1cccc(Cn2nc(SC)c(S(=O)(=O)c3ccccc3)c2N(C(C)=O)C(C)=O)c1", "Potency": "active: 20 µM"}, {"smiles": "CC(C)C[C@@H](COCc1ccc(F)cc1)N1CCN(C(=O)c2cccc(C(F)(F)F)c2)CCC1=O", "Potency": "inconclusive [activator, partial curve]"}, {"smiles": "CCNc1nc(Oc2ccc(C(=O)OCC)cc2)nc(SC)n1", "Potency": "inconclusive [activator, partial curve]"}]}]}
